Positions count from the first letter of the chain named. Some of the results follow.
T1: RBFOX1 RRM (Homo sapiens, UniProt Q9NWB1 109-208)
T1 sequence: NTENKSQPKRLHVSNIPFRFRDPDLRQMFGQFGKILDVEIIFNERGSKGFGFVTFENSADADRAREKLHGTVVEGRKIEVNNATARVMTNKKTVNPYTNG

B1: UCUUACA (DNA:RNA)
RNA: GGGAGACCGGAAUUCAGAUUGUCCUCUUACAUUAAAUCCCGUCGUAGCCACCA
DNA 1: CAATCTGAATTCCGGTCTCCC
DNA 2: TGGTGGCTACGACGGGATT
B2: UACGCCC (DNA:RNA)
RNA: B1 RNA with C26A, U27C, U28G, A29C, A31C
DNA 1: CAATCTGAATTCCGGTCTCCC
DNA 2: TGGTGGCTACGACGGGATT
B3: GGCACGC (DNA:RNA)
RNA: GGGAGACCGGAAUUCAGAUUGUCCGGCACGCUUAAAUCCCGUCGUAGCCACCA
DNA 1: CAATCTGAATTCCGGTCTCCC
DNA 2: TGGTGGCTACGACGGGATT
B4: ACUUGAG (DNA:RNA)
RNA: B1 RNA with U25A, A29G, C30A, A31G
DNA 1: CAATCTGAATTCCGGTCTCCC
DNA 2: TGGTGGCTACGACGGGATT
B5: AUAGAAC (DNA:RNA)
RNA: B3 RNA with G25A, G26U, C27A, A28G, C29A, G30A
DNA 1: CAATCTGAATTCCGGTCTCCC
DNA 2: TGGTGGCTACGACGGGATT
B6: CUUAGCC (DNA:RNA)
RNA: B3 RNA with G25C, G26U, C27U, C29G, G30C
DNA 1: CAATCTGAATTCCGGTCTCCC
DNA 2: TGGTGGCTACGACGGGATT
B7: UGAACAA (DNA:RNA)
RNA: B3 RNA with G25U, C27A, G30A, C31A
DNA 1: CAATCTGAATTCCGGTCTCCC
DNA 2: TGGTGGCTACGACGGGATT
B8: GGGAGGC (DNA:RNA)
RNA: B3 RNA with C27G, C29G
DNA 1: CAATCTGAATTCCGGTCTCCC
DNA 2: TGGTGGCTACGACGGGATT
B9: GUGAACU (DNA:RNA)
RNA: B3 RNA with G26U, C27G, C29A, G30C, C31U
DNA 1: CAATCTGAATTCCGGTCTCCC
DNA 2: TGGTGGCTACGACGGGATT
B10: CCUAUGG (DNA:RNA)
RNA: B3 RNA with G25C, G26C, C27U, C29U, C31G
DNA 1: CAATCTGAATTCCGGTCTCCC
DNA 2: TGGTGGCTACGACGGGATT
B11: AAGCCAC (DNA:RNA)
RNA: B3 RNA with G25A, G26A, C27G, A28C, G30A
DNA 1: CAATCTGAATTCCGGTCTCCC
DNA 2: TGGTGGCTACGACGGGATT
B12: CUUGAUC (DNA:RNA)
RNA: B1 RNA with U25C, C26U, U28G, C30U, A31C
DNA 1: CAATCTGAATTCCGGTCTCCC
DNA 2: TGGTGGCTACGACGGGATT
B13: AUUCGAC (DNA:RNA)
RNA: B3 RNA with G25A, G26U, C27U, A28C, C29G, G30A
DNA 1: CAATCTGAATTCCGGTCTCCC
DNA 2: TGGTGGCTACGACGGGATT
B14: CCCUAUG (DNA:RNA)
RNA: B1 RNA with U25C, U27C, C30U, A31G
DNA 1: CAATCTGAATTCCGGTCTCCC
DNA 2: TGGTGGCTACGACGGGATT
B15: GAUUUUU (DNA:RNA)
RNA: B1 RNA with U25G, C26A, A29U, C30U, A31U
DNA 1: CAATCTGAATTCCGGTCTCCC
DNA 2: TGGTGGCTACGACGGGATT
B16: AAGUGUA (DNA:RNA)
RNA: B1 RNA with U25A, C26A, U27G, A29G, C30U
DNA 1: CAATCTGAATTCCGGTCTCCC
DNA 2: TGGTGGCTACGACGGGATT
B17: GAGGGAG (DNA:RNA)
RNA: B3 RNA with G26A, C27G, A28G, C29G, G30A, C31G
DNA 1: CAATCTGAATTCCGGTCTCCC
DNA 2: TGGTGGCTACGACGGGATT
B18: UACCGCU (DNA:RNA)
RNA: B1 RNA with C26A, U27C, U28C, A29G, A31U
DNA 1: CAATCTGAATTCCGGTCTCCC
DNA 2: TGGTGGCTACGACGGGATT
B19: UCGUAUA (DNA:RNA)
RNA: B1 RNA with U27G, C30U
DNA 1: CAATCTGAATTCCGGTCTCCC
DNA 2: TGGTGGCTACGACGGGATT
B20: GCGAUGA (DNA:RNA)
RNA: B3 RNA with G26C, C27G, C29U, C31A
DNA 1: CAATCTGAATTCCGGTCTCCC
DNA 2: TGGTGGCTACGACGGGATT
B21: UGCUUUC (DNA:RNA)
RNA: B3 RNA with G25U, A28U, C29U, G30U
DNA 1: CAATCTGAATTCCGGTCTCCC
DNA 2: TGGTGGCTACGACGGGATT
B22: CUUAGUC (DNA:RNA)
RNA: B3 RNA with G25C, G26U, C27U, C29G, G30U
DNA 1: CAATCTGAATTCCGGTCTCCC
DNA 2: TGGTGGCTACGACGGGATT
B23: GAGUUGA (DNA:RNA)
RNA: B3 RNA with G26A, C27G, A28U, C29U, C31A
DNA 1: CAATCTGAATTCCGGTCTCCC
DNA 2: TGGTGGCTACGACGGGATT
B24: CUCUCAC (DNA:RNA)
RNA: B3 RNA with G25C, G26U, A28U, G30A
DNA 1: CAATCTGAATTCCGGTCTCCC
DNA 2: TGGTGGCTACGACGGGATT
B25: CACGGAA (DNA:RNA)
RNA: B3 RNA with G25C, G26A, A28G, C29G, G30A, C31A
DNA 1: CAATCTGAATTCCGGTCTCCC
DNA 2: TGGTGGCTACGACGGGATT
B26: AUCUACG (DNA:RNA)
RNA: B1 RNA with U25A, C26U, U27C, A31G
DNA 1: CAATCTGAATTCCGGTCTCCC
DNA 2: TGGTGGCTACGACGGGATT
B27: AUGCUUG (DNA:RNA)
RNA: GGGAGACCGGAAUUCAGAUUGUCCAUGCUUGUUAAAUCCCGUCGUAGCCACCA
DNA 1: CAATCTGAATTCCGGTCTCCC
DNA 2: TGGTGGCTACGACGGGATT
B28: CGAUGGU (DNA:RNA)
RNA: B3 RNA with G25C, C27A, A28U, C29G, C31U
DNA 1: CAATCTGAATTCCGGTCTCCC
DNA 2: TGGTGGCTACGACGGGATT
B29: UCACUUA (DNA:RNA)
RNA: B27 RNA with A25U, U26C, G27A, G31A
DNA 1: CAATCTGAATTCCGGTCTCCC
DNA 2: TGGTGGCTACGACGGGATT
B30: CUAAGCA (DNA:RNA)
RNA: B1 RNA with U25C, C26U, U27A, U28A, A29G
DNA 1: CAATCTGAATTCCGGTCTCCC
DNA 2: TGGTGGCTACGACGGGATT
B31: ACAAAAU (DNA:RNA)
RNA: B1 RNA with U25A, U27A, U28A, C30A, A31U
DNA 1: CAATCTGAATTCCGGTCTCCC
DNA 2: TGGTGGCTACGACGGGATT

Each binder was assayed against T1, RBFOX1 RRM (assay: EMSA; HiTS-Eq, 1 nM pool, 10 min; buffer printed only for the single-RNA assays: 10 mM Tris pH 7.5, 150 mM NaCl, 3.4 mM EDTA, 0.001% NP-40, 30 C). Details: tags: His6 N-terminal (pET28a); label: 5' 32P.
Outline: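 These values rest on relative association constants, computed from read-count changes of each RNA species versus the control reaction and normalised to the cognate motif. Reads came from free RNA recovered by 8% native PAGE after purified RbFox RRM (wild type or mutant) at increasing concentrations was equilibrated for 10 min in 50 µL with 1 nM of a 5′-radiolabelled pool with 7 randomized nucleotides and DNA-annealed flanks.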
B1 was tested, and the binding signal was 0.00155 KA relative to UGCAUGU.
B2 was tested, and the binding signal was 0.0035 KA relative to UGCAUGU.
For B3, the binding signal was 0.0238 KA relative to UGCAUGU.
In the case of B4, the binding signal is reported as 0.0165 KA relative to UGCAUGU.
In the case of B5, the binding signal is reported as 0.00183 KA relative to UGCAUGU.
With B6 the binding signal was 0.00658 KA relative to UGCAUGU.
For B7, the binding signal was 0.0072 KA relative to UGCAUGU.
In the case of B8, the binding signal is reported as 0.0189 KA relative to UGCAUGU.
With B9 the binding signal was 0.0141 KA relative to UGCAUGU.
For B10, the binding signal was 0.00999 KA relative to UGCAUGU.
With B11 the binding signal was 0.00252 KA relative to UGCAUGU.
In the case of B12, the binding signal is reported as 0.0112 KA relative to UGCAUGU.
With B13 the binding signal was 0.00912 KA relative to UGCAUGU.
B14 was tested, and the binding signal was 0.0081 KA relative to UGCAUGU.
For B15, the binding signal was 0.0168 KA relative to UGCAUGU.
In the case of B16, the binding signal is reported as 0.00628 KA relative to UGCAUGU.
B17 was tested, and the binding signal was 0.018 KA relative to UGCAUGU.
In the case of B18, the binding signal is reported as 0.00556 KA relative to UGCAUGU.
With B19 the binding signal was 0.00531 KA relative to UGCAUGU.
For B20, the binding signal was 0.0185 KA relative to UGCAUGU.
For B21, the binding signal was 0.0169 KA relative to UGCAUGU.
With B22 the binding signal was 0.0139 KA relative to UGCAUGU.
For B23, the binding signal was 0.0206 KA relative to UGCAUGU.
With B24 the binding signal was 0.00565 KA relative to UGCAUGU.
For B25, the binding signal was 0.00985 KA relative to UGCAUGU.
B26 was tested, and the binding signal was 0.00357 KA relative to UGCAUGU.
In the case of B27, the binding signal is reported as 0.0339 KA relative to UGCAUGU.
For B28, the binding signal was 0.0162 KA relative to UGCAUGU.
In the case of B29, the binding signal is reported as 0.000884 KA relative to UGCAUGU.
With B30 the binding signal was 0.00722 KA relative to UGCAUGU.
With B31 the binding signal was 0.000999 KA relative to UGCAUGU.

Reference: article PMC9911399, “Two distinct binding modes provide the RNA-binding protein RbFox with extraordinary sequence specificity”
